This is an account of results in the supplement of paper PMC7266297.

Each structure is given as a SMILES string. Structures can show the parent of a compound that is named as a salt. The list shows a part of the results. Repeats are few or missing, and single values can be far off.
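Also: Read-out is SRB optical density at 490 nm, with the control being wells given 0.5% DMSO vehicle, and compound added one day after cells were plated.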

For the experiment, the system named is KB-3-1. As to the kind of experiment: growth inhibition relative to DMSO control (SRB); cervical cancer cells: KB-3-1 is the parent and KB-V1 overexpresses MDR1; SRB is the sulforhodamine B stain; higher = more growth inhibition. As to conditions: 1 µM; 72 h.
Turning to `CN(C)CC/C=C1/c2ccccc2COc2ccc(CC(=O)O)cc21` [Olopatadine HCl], the growth inhibition was found to be 27.8%.

`CNC(=O)c1cc(Oc2ccc(NC(=O)Nc3ccc(Cl)c(C(F)(F)F)c3)cc2)ccn1` [Sorafenib Tosylate] registered a growth inhibition of 6.63%.

Take `C=C(C)[C@@H]1CC[C@]2(C(=O)O)CC[C@]3(C)[C@H](CC[C@@H]4[C@@]5(C)CC[C@H](O)C(C)(C)[C@@H]5CC[C@]43C)[C@@H]12` [Betulinic acid]: the growth inhibition was below 0%.

`C=CC(=O)Nc1cccc(Oc2nc(Nc3ccc(N4CCN(C)CC4)cc3OC)ncc2Cl)c1` came in with a growth inhibition of 40.1%.

For the compound `Cc1cc(OCc2nnc(SC3CCCC3)n2-c2cccnc2)ccc1-c1ccc(S(C)(=O)=O)cc1`, the growth inhibition turned out to be 58.6%.

`COc1cccc2c1C(=O)c1c(O)c3c(c(O)c1C2=O)C[C@@](O)(C(=O)CO)C[C@@H]3O[C@H]1C[C@H](N)[C@H](O)[C@H](C)O1` [Doxorubicin (Adriamycin)] had a growth inhibition of 76.6%.

`CC(C)C(=O)Oc1ccc(CO)cc1[C@H](CCN(C(C)C)C(C)C)c1ccccc1` [Fesoterodine Fumarate]: the growth inhibition was below 0%.

The compound `Cc1cc(C(=O)NOCCO)c(Nc2ccc(I)cc2F)n(C)c1=O` came in with a growth inhibition below 0%.

The compound `COc1ccc(CCC(=O)Nc2nc3ccc(Cl)cc3s2)cc1OC` had a growth inhibition of 14.9%.

For `COc1cc2c(cc1OC)[C@@H]1Cc3ccc(OC)c(OC)c3CN1CC2` [Rotundine], the growth inhibition was found to be 40.7%.

Compound `COc1cc2ncnc(Nc3ccc(Cl)cc3F)c2cc1OC` showed a growth inhibition of 24.7%.

As for `NC1(Cc2ccc(Cl)cc2)CCN(c2ncnc3[nH]ccc23)CC1`, the growth inhibition is below 0%.

`c1cncc(CN2CCC(n3ncc4c(N5CCOCC5)nc(-c5ccc6[nH]ccc6c5)nc43)CC2)c1`: the growth inhibition is below 0%.
